# In the supplement of paper PMC11417369:
# ± gives the standard deviation of the averaged measurements. This is one part of the list.
# System: PfAP2-G AP2 domain (GST-tagged)
# Experiment: gcPBM binding intensity (ln(normalized median fluorescence intensity)); higher = stronger DNA binding
# Outline: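 Alexa488 anti-GST antibody, scanned at 488 nm, detected GST-tagged P. falciparum DNA-binding domains that had been expressed in E. coli and incubated for 1 h on an Agilent 4 × 180k array. The array carried primer-extended double-stranded 36-bp intergenic genomic probes and negative controls. Binding intensity is the highest Masliner-normalised natural-log median intensity across replicate spots of either orientation of each probe.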
row,Sequence,gcPBM binding intensity (ln)
1,AAATTAAAGATAAAAGTGCAAAATTATAAATTTATT,9.76 ± 0.12
2,AAATTAATGAAATATACACACATATATAAATATATA [CACACA_site4378],9.675 ± 0.064
3,ATAAAAAAGCAACATCATATGTTTTTATAGAGTATT [CACACA_negctrl_site745],9.62 ± 0.22
4,AACAAGTTGCATGGTGCACACATGTATTTATATCTA [CACACA_site5414],10.4 ± 0.4
5,TATTAAAAATATTATGTACACACATTTTAGATATTT [CACACA_site8549],11.4 ± 0.8
6,AAAAGTATATATTCAGTGCATAGTCTTTAAATATAA [GTGCAC_site9522],9.875 ± 0.007
7,ATAAGCATCTGGATATGTACTTATTCCTTTAAAGAT [XGTACX_site6225],11.2 ± 0.82
8,TATATATAACATTGTACACACAAAGAAATAATATTA [CACACA_site3035],11.3 ± 0.97
9,ATATAAATAAAAAAAAAAAAAAAAAAAAAAAAAAAA [CACACA_negctrl_site972],9.52 ± 0.21
10,TTAAAATTTTAAAAATTTTAATTTTACAAAAAAAAT [TGCATGCA_negctrl_site227],9.56 ± 0.23
11,TTTCTTTCTTTCTTTTTTTAAATATTTTTTAAAAAT [TGCATGCA_negctrl_site206],10.04 ± 0.014
12,TATGCTACATTATATGTACACACATATACATATATA [CACACA_site8199],11.3 ± 0.93
13,ATTTATACGTAATATGCATAAATATAAATATATATA [XGTACX_negctrl_site133],10 ± 0.14
14,TATTGTAAGAAAGGCACACAGATAAAATTATTATAT [CACACA_site2921],10.06 ± 0.021
15,AAGAAAAATATTCGTGTGCACAGAAGTATATGTGTG [GTGCAC_site9814],10.5 ± 0.2
16,ACAAGTTAAAATATTACACACATATAAATATTTATA [CACACA_site7467],10 ± 0.18
17,ATCATCTTTATTCAAGTGCACTGAAAATTTTTTATA [GTGCAC_site9801],10.4 ± 0.33
18,ATATAAGTGTATCTAACACACAAATATATAAAAATG [CACACA_site1956],10.2 ± 0.35
19,ATAATTATATGGCTAGCACACAATAAATAATTATAT [CACACA_site3815],10 ± 0.12
20,AGTAATAGTTTGTGCACACTCAAGTATATCATAGAT [CACACA_site6082],10.6 ± 0.34
21,TACATATATACATACACACACATATAACCAATGTAG [CACACA_site2192],10.2 ± 0.14
22,TTTCGCTTTATTTATGCATGCAAATAAGTTGATATT [TGCATGCA_site724],9.84 ± 0.17
23,ATTTTTGTAAATACATGTACATATATATGCATATCC [XGTACX_site6353],11.3 ± 0.56
24,AAAATTAAAATAGTAATACACACTTCATAGGAAATG [CACACA_site1762],10.06 ± 0.078
